In PubChem BioAssay (NCI):
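All cell lines were grown in 96-well plates and treated with compound for 48 hours. The concentration for 50% growth inhibition is given as GI50. TGI denotes the concentration required for complete inhibition of growth.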

System: NCI-H322M lung
Experiment: inhibition of tumour cell growth, NCI panel, 48 h

SMILES: CN(C)CCCOc1c2ccc(Cl)cc2nc2c1oc1ccccc12
- GI50: 1.55 µM
- TGI: 10.4 µM

SMILES: C=C1[C@@H](C)C2[C@H](Cc3ccccc3)NC(=O)[C@]23[C@H](OC(C)=O)/C=C/[C@@](C)(O)C(=O)[C@@H](C)C/C=C/[C@H]3[C@@H]1O (some centres not stated)
- GI50: > 16.7 µM
- TGI: > 16.7 µM

SMILES: CN1CCN(Cc2ccc(NC(=O)c3cncc(C#Cc4cnc5ccc(OCC(C)(C)O)nn45)c3)cc2C(F)(F)F)CC1
- GI50: 0.264 µM
- TGI: 0.71 µM

SMILES: Cc1ccc2c(n1)C(=O)C(Cl)=C(Nc1ccccc1C(=O)OC(C)(C)C)C2=O
- GI50: 10.7 µM
- TGI: 54 µM

SMILES: COc1ccc(/C=N/Nc2ccnc3cc(Cl)ccc23)cc1Cl
- GI50: 1.72 µM
- TGI: 3.13 µM

SMILES: CC[C@]12CC(C(=O)OC)=C3Nc4ccccc4[C@@]34CCN(C14)[C@@H]1c3cc4c(cc3O[C@@H]1[C@H]2O)NC1=C(C(=O)OC)C[C@@]2(CC)C3N(CC[C@@]143)C[C@H]1O[C@H]12 (some centres not stated)
- GI50: 0.455 µM
- TGI: > 50 µM
